Where two headings read alike, the source gives them in different places.

The target in assay [1] is T1, integrin α4β1 (Homo sapiens, UniProt P05556+P13612). Conditions: Activity (IC50), K562(α4β1), VCAM-1, Mn (high affinity).
The target of assay [2] is T1, integrin α4β1. Nature of the assay: K562(α4β1) cell adhesion to CS-1. More on the design: expressed in transfected cells; host or cells: K562 cells engineered to over-express integrin α4β1. In kind it is cell-based.
In assay [3] the target is T1, integrin α4β1. Nature of the assay: Competition of Gd567 liposome binding to α4β1-K562 cells by free targeting ligand. The arrangement: expressed in transfected cells; host or cells: K562 cells engineered to over-express integrin α4β1. To be noted: α4β1 expressing K562 cells; highest doses of competitor. An excerpt:
THI567-targeted liposome (150 nm; 1.0%) was used at a concentration of 2×10^−10 pM, and THI565 was used at indicated concentrations. Rhodamine fluorescence was detected by flow cytometry.
Particle size is a critical component for acceptable functionality and pharmacokinetics of the liposome in vivo. In an embodiment, the particle size is between 50 and 400 nm. In an embodiment, the particle size is between 85 and 200 nm. In another embodiment, different liposome sizes were developed (250 nm, 150 nm, and 100 nm). Lissamine rhodamine B was incorporated into the liposomes for fluorescence detection, and Gd was incorporated into liposome for MRI-based imaging. Liposomes were termed “Gd567” (size nm; % targeted ligand). Table 2 also describes liposome binding constants as measured by their binding to α4β1 expressing K562 cells (measured by flow cytometry). Binding constants are expressed as the molar particle concentration. Binding specificity of liposomes was determined by a number of different means. These include competition with free targeting ligand (FIG. 3), where excess THI565 was used to compete binding of Gd567 (150 nm; 1.0%) liposome to integrin α4β1 expressing K562 cells.

In the case of `Cc1cn(Cc2c(Cl)cccc2OCCO)c(=O)c(NC(=O)N[C@@H](CC(=O)O)c2cccc(OCCO)c2)c1O` [THI565], the half-maximal inhibitory concentration (IC50) is 467 pM on integrin α4β1 [1], 7940 pM at integrin α4β1 [2] (Ca/Mg) and 320 pM at integrin α4β1 [2] (Mn). In addition, on integrin α4β1 [3], the “inhibition of Gd567 (150 nm; 1.0%) liposome binding” value is recorded as “Complete inhibition”.

For the origin of these results see US11312685B2, “Targeting nanoparticles” (Texas Children's Hosptial, priority 2017, dated 2022).
